In paper PMC12136788 one finds binding signal data, which are given here for 22 molecules.

B1: chr10:24583932:24584033:-|3pUTR|ENSG00000107863|unk|FALSE|bound_elsewhere (ssRNA)
RNA: GGGAGUUCUACAGUCCGACGAUCAACAAAAGUGCCUCAUCAUAAAAAUACAGUUGGUUUUUAGGGUGCCAUAUUGUUAAAAUUAGAUAACUUACUUACAUUGAAUAAACGAAUGCGUUUUAUUGGUAACAGAUAUCAUUACAUCAACAGAGGAUUGAGCAUCA
B2: chr7:36452941:36453042:+|3pUTR|ENSG00000011426|msi1|total|mutant (ssRNA)
RNA: GGGAGUUCUACAGUCCGACGAUCGUCUUGAAGCAGCAACGUCUUUCAGGGGUUGGAGACAGAAACCCAUUCUCCAAUCUCAGCCGUUUUUUCGAAAGGCUGUGAUCAUUUAUUGAUCGUGAUAUGACUUGUUACCCGGGUACUCAACAGAGGAUUGAGCAUCA
B3: ENSG00000198589:be:win_8501|CDS_3pUTR|ENSG00000198589|bound_else_gene|NA|bound_elsewhere_windowed (ssRNA)
RNA: GGGAGUUCUACAGUCCGACGAUCUUGUGCUAUUUUACAACGACUUUAACCGGUGGCAUCAUGAAUACCAAACCCGCUACUGAUGGUGACAGCUGUACAUCAACUCUGCCCCUAGGAUGAGCAGAAGUACCUGGAGCAUCAUUCCAACAGAGGAUUGAGCAUCA
B4: chr1:93361585:93361687:+|3pUTR|ENSG00000117505|unk|total|mutant (ssRNA)
RNA: GGGAGUUCUACAGUCCGACGAUCUUUAACUUGCCGUUACCGUUUACUUAUUGUUUUCCGAAUUACUUUUACAUUUUCCCAACCCGAUGGCCCCGAGUCCAACAUUACCUUUUGAGAUGACAUUAUUGUCUCCAUAAUUGAGUGCAACAGAGGAUUGAGCAUCA
B5: chr10:110898111:110898227:+|3pUTR|ENSG00000150593|unk|total|mutant (ssRNA)
RNA: GGGAGUUCUACAGUCCGACGAUCAUAAGAACUCUUGCAGUCUCCGAUGUUAUAAAAAUAUAUAUCUGAAUUGUAAGAGUUGUCCGCACAAGUUUUUUUUUUUUUUUUUUUUAAGCACUUGUUUUGGGUACAAGGCAUUUCUGACAACAGAGGAUUGAGCAUCA
B6: ENSG00000136451:be:win_3601|3pUTR|ENSG00000136451|bound_else_gene|NA|bound_elsewhere_windowed (ssRNA)
RNA: GGGAGUUCUACAGUCCGACGAUCCCUGGAUUGGGAGGCACAGUGGCCACAUUUGGAGGAAGUUCACAUUUCCUGGCAUGCAGACCCAAAACUGGGUUCUGGCUCUGCCUGCUGGGAUCUGUUAUCUCUGGUGGGCUGGCAGUCCAACAGAGGAUUGAGCAUCA
B7: chr12:76028505:76028606:-|3pUTR|ENSG00000139289|msi1|total|mutant (ssRNA)
RNA: GGGAGUUCUACAGUCCGACGAUCAAGUCUUGGUCAGUAUUUUUCCAGCAUUUAAAUUGAAACGGUCAGUAUCCGACCACUGCCCGGUUAUGCCGUCAAGAAAUAAAAACCGAAUUACAUGCUACAGAUGUCUUUAUUCUCCUUCAACAGAGGAUUGAGCAUCA
B8: chr5:103087900:103088172:-|CDS|ENSG00000145723|control|control|control (ssRNA)
RNA: GGGAGUUCUACAGUCCGACGAUCAAGGAUCGUGAACUAUUAGAAUAUAGAAAUACGAAAAUCUCUCCAUUGAUAGACGAUCAUAGUUCUCUUGAAAAGCAGACUUUCAGUCUGUUGGACUCUUCAAACCAGGUUCUUGAAUACCAACAGAGGAUUGAGCAUCA
B9: chr1:151048051:151048152:+|CDS|ENSG00000143443|unk|FALSE|unique (ssRNA)
RNA: GGGAGUUCUACAGUCCGACGAUCGACCGCCUGGCUGGACCAGCGGCUGCCGAGCUCUUGGCCGCCACGGUGUCCACCGGCUUUAGCCGGUCGUCCGCCAUUAACGAGGAGGAUGGGUCUUCAGAAGAGGGGGUUGUGAUUAAUCAACAGAGGAUUGAGCAUCA
B10: chr11:20121310:20121411:+|3pUTR|ENSG00000166833|msi1|FALSE|bound_elsewhere (ssRNA)
RNA: GGGAGUUCUACAGUCCGACGAUCAUUGUAACAUAGAAAUUGUAAAUAAUUGAUUAAAGUGCUGCAUUUUGAUGAAUUUUUUCUAGCCAUUUUUAAAGAGAAAACUAGGAAUUGAGUAUUUUGUGUACGGUAUGUUUCCAUCCUCAACAGAGGAUUGAGCAUCA
B11: chr2:224001733:224001845:-|CDS|ENSG00000135919|unk|total|mutant (ssRNA)
RNA: GGGAGUUCUACAGUCCGACGAUCGGCCUCUGUGACGCUGCCUUCCAUCUGCUCCCACUUCAAUCCUCUGUCUCUCGAGGAACCCGGCUCCAACACGGGGAUCCAGGUUUUCAAUCAGAUUGUGAAGUCGAGGCCUCAUGACAACAACAGAGGAUUGAGCAUCA
B12: chr14:23097777:23097878:+|CDS|ENSG00000179933|msi1|FALSE|unique (ssRNA)
RNA: GGGAGUUCUACAGUCCGACGAUCGAUGAAGUGUAUUCUUCACUGGUUUGCCAAUUGGUCAGGUCCCCAGCGUGAACGUUUCCUAGAGGACCUGGUAGCUAAGGCAGUGCCAGAAAAAUUACAACCACUGCUGGAUAGUCUGGACAACAGAGGAUUGAGCAUCA
B13: chr7:127374855:127374969:-|CDS|ENSG00000048405|unk|FALSE|unique (ssRNA)
RNA: GGGAGUUCUACAGUCCGACGAUCCCUAGAAGCCAUAUAUCCAAGUGUGGACAAACGAGAAUAUAUUAUUAAGCUAGAACCCAUAGAAACUAAUCAAAAUGCAGUAUUUCAAUAUAUUUCGAGGACUGAUAAUCCUAUUGAAGUCAACAGAGGAUUGAGCAUCA
B14: ENSG00000090470:stop:overlap|stop_codon|ENSG00000090470|stop_codon|NA|stop_codon (ssRNA)
RNA: GGGAGUUCUACAGUCCGACGAUCGAUGGGUCCUUCCCCCGCUCCCCAGCAACGACAUCUGGGCAACUGCUGUUAAGCUGCAUUAGUAAAGAUGCUCCAGGAGUGUGGUCCAGCCAGCGCUCUUUCCAGCUGUAAAUAUUAGCGCAACAGAGGAUUGAGCAUCA
B15: chr14:55048714:55048815:+|3pUTR|ENSG00000180008|msi1|FALSE|bound_elsewhere (ssRNA)
RNA: GGGAGUUCUACAGUCCGACGAUCUUUCUAAUUUUGAACAGAUGACUCAGUCCUAAAUCUUUGCCUUUAUUUCCUAUAAAAUGUAGGUGAUACUUGUAACUCGACUUCCUGGAGUUAAUUCUUCAGCAAGAGGUGACCCUGGGACAACAGAGGAUUGAGCAUCA
B16: chr1:223774945:223775046:+|3pUTR|ENSG00000162909|msi1|FALSE|unique (ssRNA)
RNA: GGGAGUUCUACAGUCCGACGAUCAAAUACACUUUGUAUCUGGACCUCAAAAUUAUGGGAACAUUUACUUAAACGGAUGAUCAUAGCUGAAAAUAAUGAUACUGUCAAUUUGAGAUAGCAGAAGUUUCACACAUCAAAGUAAAACAACAGAGGAUUGAGCAUCA
B17: ENSG00000107863:be:win_3751|CDS|ENSG00000107863|bound_else_gene|NA|bound_elsewhere_windowed (ssRNA)
RNA: GGGAGUUCUACAGUCCGACGAUCGAUCCUCUAGAUCGUCUGAAAACAUUAAAAAGACUAAUUCACGAUUUGCCUGAACAUCAUUAUGAAACACUUAAGUUCCUUUCAGCUCAUCUGAAGACAGUGGCAGAAAAUUCAGAAAAACAACAGAGGAUUGAGCAUCA
B18: chr13:100668578:100668794:-|CDS|ENSG00000125247|control|control|control (ssRNA)
RNA: GGGAGUUCUACAGUCCGACGAUCCACUGAUUUGGAUCACAUUCUUCCAUCUUCUGUUCUUCCUCCAUUCUGGGCUAAGUUAGUAGUGGGAUCGGUUGCCAUUGUGUGUUUUGCACGCAGCUAUGAUGGAGACUUUGUCUUUGACAACAGAGGAUUGAGCAUCA
B19: chr7:111727939:111728040:-|3pUTR|ENSG00000128512|unk|total|mutant (ssRNA)
RNA: GGGAGUUCUACAGUCCGACGAUCAAGUGGUAAACCGUGAUAAAGACUCCUUUUGUACCUUUUUAUGUUCACUUUUUUUUAUACCGUUUAAUCUUAAAACCAAUACGAUAUUGUCAAACGAUACAAUGUGUGACAAUGUUGUAUCAACAGAGGAUUGAGCAUCA
B20: chr11:113276847:113276948:+|3pUTR|ENSG00000149294|msi1|FALSE|unique (ssRNA)
RNA: GGGAGUUCUACAGUCCGACGAUCAGAAGGGAAAAGCCAGCCCUUUGUAUAGAAAUUUUGCUUUUUUUUCCCUCAUUCUACUUUAGAACUGCAAGCUUGUGCACUGUGGAUGCGUGAAUAUUUUAGUGUGAAACGUGUUUUUGUCAACAGAGGAUUGAGCAUCA
B21: ENSG00000008256:stop:overlap|stop_codon|ENSG00000008256|stop_codon|NA|stop_codon (ssRNA)
RNA: GGGAGUUCUACAGUCCGACGAUCGCAGAGAUCCCUUCUAUGACAUGUUGGCAACGAGGAAACGAAGGAUUGCCAAUAAAAAAUAGCUUUCCUGGCUAAAAGACCCAGGUAAAAGACCCAACCCCAGCAGAAAGACACCGCGGGCAACAGAGGAUUGAGCAUCA
B22: chr1:23854467:23854568:-|CDS|ENSG00000179163|unk|FALSE|unique (ssRNA)
RNA: GGGAGUUCUACAGUCCGACGAUCAAGUCAAGUGGUUUUACUCCUCAUGACCAAAUAUUCUUUCCCUCCUUAGGAUGAGGUGGUAGUAAAUGACCGAUGGGGUCAGAACUGUUCCUGUCACCAUGGAGGAUACUAUAACUGUGACAACAGAGGAUUGAGCAUCA

Some of the results follow.

For this assay, the target named is MSI1 full-length (mouse, UniProt Q61474 1-362). In words: nsRBNS (natural sequence RNA bind-n-seq); RBNS binding buffer (assumed for nsRBNS): 25 mM Tris pH 7.5, 150 mM KCl, 3 mM MgCl2, 0.01% Triton X-100, 500 ug/ml BSA, 20 U/ml SUPERase-In, 4 C; UNK is unkempt and MSI1 is Musashi-1; names of the RNAs are library labels; protein concentration not given here; high values mean tight binding.
UniProt Q61474, sequence (Q61474 whole entry): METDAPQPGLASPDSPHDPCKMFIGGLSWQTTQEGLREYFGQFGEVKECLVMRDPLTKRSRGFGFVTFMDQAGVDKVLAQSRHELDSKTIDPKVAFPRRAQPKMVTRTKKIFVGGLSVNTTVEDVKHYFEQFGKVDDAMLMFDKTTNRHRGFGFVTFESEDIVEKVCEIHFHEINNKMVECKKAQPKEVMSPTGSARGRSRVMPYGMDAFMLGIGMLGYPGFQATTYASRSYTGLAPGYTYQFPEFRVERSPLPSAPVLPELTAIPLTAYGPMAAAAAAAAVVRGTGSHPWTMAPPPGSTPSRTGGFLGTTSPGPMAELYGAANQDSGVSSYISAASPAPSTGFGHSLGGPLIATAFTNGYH
B1 displayed a binding signal of 1.22 enrichment R.

For the molecule B2, the binding signal stood at 0.402 enrichment R.

B3 showed a binding signal of 0.658 enrichment R.

In turn, B4 returned a binding signal of 1.55 enrichment R.

B5 displayed a binding signal of 0.994 enrichment R.

In turn, B6 had a binding signal of 0.459 enrichment R.

As for B7, the binding signal was found to be 0.319 enrichment R.

B8 had a binding signal of 2.62 enrichment R.

For the molecule B9, the binding signal is 0.497 enrichment R.

Molecule B10 yielded a binding signal of 2.14 enrichment R.

The molecule B11 showed a binding signal of 0.408 enrichment R.

On to B12, for which the binding signal was determined as 0.326 enrichment R.

As for B13, the binding signal came out at 28.2 enrichment R.

For B14, the binding signal is 0.576 enrichment R.

In turn, B15 came in with a binding signal of 0.258 enrichment R.

As for B16, the binding signal was 0.252 enrichment R.

Consider B17, for which the binding signal came to 0.41 enrichment R.

With B18, the binding signal came to 0.518 enrichment R.

B19 returned a binding signal of 3.05 enrichment R.

As to B20, the binding signal came out at 5.41 enrichment R.

Take B21: the binding signal is 0.418 enrichment R.

The molecule B22 returned a binding signal of 0.51 enrichment R.
